Experimental data published in patent publication US20230203098A1, “HUMAN TRANSFERRIN RECEPTOR BINDING PEPTIDE” (priority 2020, published 2023).
Part of at least one peptide drawing is inferred or uncertain, most often the ends. For at least one compound, name, drawing or mass did not settle the structure. Where a SMILES comes first, the peptide text is derived from it. Bridges are numbered along the chain shown (N, C = ends). [ ]: non-standard residue; d: D form. The star is where a group is joined. X7 = O=C(O)c1cc(N2C(=O)CC(*)C2=O)ccc1-c1c2ccc(=O)cc-2oc2cc(O)ccc12; PEG12 = NCCOCCOCCOCCOCCOCCOCCOCCOCCOCCOCCOCCOCCC(=O)O; Ala(2-NH2-4-pyridyl) = Nc1cc(C[C@H](N)C(=O)O)ccn1; NMePhe(3-Cl) = CN[C@@H](Cc1cccc(Cl)c1)C(=O)O; 3Pal(6-NH2) = Nc1ccc(C[C@H](N)C(=O)O)cn1; NMeW = CN[C@@H](Cc1c[nH]c2ccccc12)C(=O)O; 1Nal = N[C@@H](Cc1cccc2ccccc12)C(=O)O; NMeY = CN[C@@H](Cc1ccc(O)cc1)C(=O)O; NMeF = CN[C@@H](Cc1ccccc1)C(=O)O; 4Pal = N[C@@H](Cc1ccncc1)C(=O)O

The molecules below were run against transferrin receptor (hTfR) (Homo sapiens, UniProt P02786) (assay: Intermolecular interaction evaluation test between transferrin receptor (hTfR) and peptide by surface plasmon resonance (SPR)). Conditions: SPR; peptides, linker-added peptides and FITC conjugates, Patent ID 203-230; read-out: KD.
Format: binding
Description: For each of the various synthesized peptides, the intermolecular interaction of the peptide with the transferrin receptor (hTfR) was tested by surface plasmon resonance (SPR) according to the following method. The specific test method is as follows.
An NTA sensor chip (Global Life Sciences Technologies Japan) was inserted in a Biacore T200 (Global Life Sciences Technologies Japan) and a prime operation was performed 3 times with a running buffer: 10 mM HEPES pH 8.0 (Nacalai Tesque), 150 mM NaCl (Nacalai Tesque), 0.05% Tween 20 (Nacalai Tesque), 0.1% BSA (Sigma-Aldrich), 1.0% DMSO (FUJIFILM Wako Pure Chemical) to create an Equilibration state at a flow rate of 30 µL/min. After reacting with 350 mM EDTA solution for 60 seconds at a flow rate of 10 µL/min then reacting with 0.5 mM NiCl2 solution (Kishida Chemical) for 60 seconds at a flow rate of 10 µL/min, the NTA sensor chip was washed with 3 mM EDTA solution (Nacalai Tesque) for 60 seconds at a flow rate of 10 µL/min. After mixing 50 µL each of 60 mM EDC solution (Global Life Sciences Technologies Japan) and 650 mM NHS solution (Global Life Sciences Technologies Japan), the mixture was reacted for 420 seconds at a flow rate of 10 µL/min. By diluting with the running buffer, 150 µL of 3.2 µM hTfR solution was prepared and used for reaction for 600 seconds at a flow rate of 10 µL/min, thereby immobilizing hTfR on the NTA sensor chip. After immobilization, capping was performed by reacting with 1.0 M ethanolamine aqueous solution (Global Life Sciences Technologies Japan) for 420 seconds at a flow rate of 10 µL/min. A peptide dissolution liquid prepared to 10 mM in the DMSO solution was diluted with the running buffer to a final concentration of 10 µM so as to become the peptide dissolution liquid, then peptide solutions of 100 nM, 50 nM, 25 nM, 10 nM and 5 nM were prepared. Kinetics of the peptide to hTfR was acquired by SPR measurement using the above-mentioned samples. Single-cycle kinetics was used as a kinetic evaluation model and curve fitting was performed using Biacore T200 Evaluation Software Version 3.0 (Global Life Sciences Technologies Japan). An obtained sensorgram was subjected to curve fitting using the least-squares method, and the binding of the peptide to hTfR was evaluated by obtaining KD values. […] A chemical structure of hTfR No. 894 is as follows.
The variant peptides were synthesized according to Example 1 unless otherwise stated in Example 9 or 10. The linker-added peptides were synthesized according to Example 1, except that Fmoc-NH-SAL-PEG resin (Watanabe Chemical Industries) was used as a resin for the peptide synthesis when the linker was PEG. The peptide, to which a peptide, a fatty acid, PEG, or a conjugate thereof is added as a linker, was also synthesized according to Example 1, unless otherwise stated in Example 9 or 10.

Chain of transferrin receptor (hTfR) (P02786 whole entry): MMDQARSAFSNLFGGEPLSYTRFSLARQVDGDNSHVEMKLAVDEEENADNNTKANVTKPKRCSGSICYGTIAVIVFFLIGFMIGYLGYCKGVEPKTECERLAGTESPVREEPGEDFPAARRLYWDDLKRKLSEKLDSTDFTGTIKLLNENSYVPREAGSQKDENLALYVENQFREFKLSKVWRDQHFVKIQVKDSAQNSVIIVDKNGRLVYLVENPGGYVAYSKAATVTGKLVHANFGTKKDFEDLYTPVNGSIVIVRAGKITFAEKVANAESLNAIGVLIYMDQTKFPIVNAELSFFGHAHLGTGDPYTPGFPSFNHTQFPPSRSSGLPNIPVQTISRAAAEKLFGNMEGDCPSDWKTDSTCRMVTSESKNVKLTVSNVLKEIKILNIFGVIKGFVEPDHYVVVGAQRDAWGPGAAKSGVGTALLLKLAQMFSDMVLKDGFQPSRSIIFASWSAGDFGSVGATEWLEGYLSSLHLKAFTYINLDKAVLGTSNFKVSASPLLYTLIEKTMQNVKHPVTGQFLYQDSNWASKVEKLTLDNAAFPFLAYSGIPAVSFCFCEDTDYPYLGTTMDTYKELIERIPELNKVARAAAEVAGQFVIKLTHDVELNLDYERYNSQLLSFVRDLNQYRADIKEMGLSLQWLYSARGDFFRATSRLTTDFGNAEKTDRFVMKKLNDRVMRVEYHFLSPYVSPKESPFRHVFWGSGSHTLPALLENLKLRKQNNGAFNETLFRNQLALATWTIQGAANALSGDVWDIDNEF

SMILES | Kd
CC[C@H](C)[C@@H]1NC(=O)[C@H](Cc2ccc(O)cc2)NC(=O)[C@H](Cc2ccc(O)cc2)NC(=O)[C@H](CC(N)=O)NC(=O)[C@H](Cc2c[nH]c3ccccc23)NC(=O)[C@H](C(C)C)NC(=O)[C@H](Cc2ccccc2)NC(=O)[C@H](C(C)C)NC(=O)[C@H](C)NC(=O)CCC[C@@H](C(N)=O)NC(=O)[C@H](CO)NC(=O)[C@H]([C@@H](C)CC)NC1=O [compound 205] | 100 to 1000 nM

Same assay, conditions: binding to hTfR by SPR; Table 2 peptides; read-out: KD value (SPR) class

SMILES | Kd
CC[C@H](C)[C@@H]1NC(=O)[C@H](Cc2ccc(OC)cc2)NC(=O)[C@H](Cc2ccc(O)cc2)NC(=O)[C@H](CC(N)=O)NC(=O)[C@H](Cc2c[nH]c3ccccc23)N(C)C(=O)[C@H](C(C)C)NC(=O)[C@H](Cc2cccc(Cl)c2)N(C)C(=O)[C@H](CCC(=O)NCCOCCOCCOCCOCCOCCOCCOCCOC)NC(=O)[C@H](C)NC(=O)CSC[C@@H](C(N)=O)NC(=O)[C@H](Cc2ccc(O)cc2)N(C)C(=O)[C@H](Cc2ccccc2)NC(=O)[C@@H](CCCNC(=N)N)NC(=O)[C@H](CCCNC(=N)N)NC(=O)[C@H]([C@@H](C)CC)NC1=O [compound 240] | 1 to 100 nM
CC[C@H](C)[C@@H]1NC(=O)[C@H](Cc2ccc(OC)cc2)NC(=O)[C@H](Cc2ccc(O)cc2)NC(=O)[C@H](CC(N)=O)NC(=O)[C@H](Cc2c[nH]c3ccccc23)N(C)C(=O)[C@H](C(C)C)NC(=O)[C@H](Cc2cccc(Cl)c2)N(C)C(=O)[C@H](CC2CC2)NC(=O)[C@H](C)NC(=O)CSC[C@@H](C(=O)NCCOCCOCCOCCOCCC(N)=O)NC(=O)[C@H](Cc2ccc(O)cc2)N(C)C(=O)[C@H](Cc2ccccc2)NC(=O)[C@@H](CCCNC(=N)N)NC(=O)[C@H](CCCNC(=N)N)NC(=O)[C@H]([C@@H](C)CC)NC1=O [compound 245] | 1 to 100 nM

Next, values leading:

Kd | SMILES
1 to 100 nM | CC[C@H](C)[C@@H]1NC(=O)[C@H](Cc2ccc(OC)cc2)NC(=O)[C@H](Cc2ccc(O)cc2)NC(=O)[C@H](CC(N)=O)NC(=O)[C@H](Cc2c[nH]c3ccccc23)N(C)C(=O)[C@H](C(C)C)NC(=O)[C@H](Cc2cccc(Cl)c2)N(C)C(=O)[C@H](CC(C)(C)C)NC(=O)[C@H](C)NC(=O)CSC[C@@H](C(=O)NCCOCCOCCOCCOCCC(N)=O)NC(=O)[C@H](Cc2ccc(O)cc2)N(C)C(=O)[C@H](Cc2ccccc2)NC(=O)[C@@H](CCCNC(=N)N)NC(=O)[C@H](CCCNC(=N)N)NC(=O)[C@H]([C@@H](C)CC)NC1=O [compound 246]
1 to 100 nM | CCCCC[C@@H]1NC(=O)[C@H]([C@@H](C)CC)NC(=O)[C@H](Cc2ccc(O)cc2)NC(=O)[C@H](Cc2ccc(O)cc2)NC(=O)[C@H](CC(N)=O)NC(=O)[C@H](Cc2c[nH]c3ccccc23)NC(=O)[C@H](C(C)C)NC(=O)[C@H](Cc2ccccc2)NC(=O)[C@H](C(C)C)NC(=O)[C@H](C)NC(=O)CSC[C@@H](C(N)=O)NC(=O)[C@H](Cc2ccc(O)cc2)N(C)C(=O)[C@H](Cc2ccc(O)cc2)NC(=O)[C@H](CCCNC(=N)N)NC(=O)[C@H](CCCNC(=N)N)NC1=O [compound 250]
1 to 100 nM | CC[C@H](C)[C@@H]1NC(=O)[C@H](Cc2ccc(OC)cc2)NC(=O)[C@H](Cc2ccc(O)cc2)NC(=O)[C@H](CC(N)=O)NC(=O)[C@H](Cc2c[nH]c3ccccc23)N(C)C(=O)[C@H](C(C)C)NC(=O)[C@H](Cc2cccc(Cl)c2)NC(=O)[C@H](C(C)C)NC(=O)[C@H](C)NC(=O)CSC[C@@H](C(=O)NCCOCCOCCOCCOCCC(N)=O)NC(=O)[C@H](Cc2ccc(O)cc2)N(C)C(=O)[C@H](Cc2ccccc2)NC(=O)[C@@H](CCCNC(=N)N)NC(=O)C(C)(C)NC(=O)[C@H]([C@@H](C)CC)NC1=O [compound 265]
1 to 100 nM | CC[C@H](C)[C@@H]1NC(=O)[C@H](Cc2ccncc2)NC(=O)[C@H](Cc2ccc(O)cc2)NC(=O)[C@H](CC(N)=O)NC(=O)[C@H](Cc2c[nH]c3ccccc23)NC(=O)[C@H](C(C)C)NC(=O)[C@H](Cc2ccccc2)N(C)C(=O)[C@H](C(C)C)NC(=O)[C@H](C)NC(=O)CSC[C@@H](C(=O)N[C@H](CCC(=O)O)C(N)=O)NC(=O)[C@H](Cc2ccc(O)cc2)N(C)C(=O)[C@H](Cc2ccncc2)NC(=O)[C@H](CCCNC(=N)N)NC(=O)[C@H](CCCNC(=N)N)NC(=O)[C@H]([C@@H](C)CC)NC1=O [compound 278] ({CH2CO}-AV[NMeF]VWNY[4Pal]IIRR[4Pal][NMeY]C[dE]-NH2; thioether N-15)

Same assay, conditions: hTfR binding by SPR; hTfR No. 894 variant peptides, linker-added peptides and payload conjugates (Table 2); read-out: KD value obtained from the SPR measurement

SMILES | Kd
CC[C@H](C)[C@@H]1NC(=O)[C@H](Cc2ccc(O)cc2)NC(=O)[C@H](Cc2ccc(O)cc2)NC(=O)[C@H](CC(N)=O)NC(=O)[C@H](Cc2c[nH]c3ccccc23)N(C)C(=O)[C@H](C(C)C)NC(=O)[C@H](Cc2ccccc2)N(C)C(=O)[C@H](C(C)C)NC(=O)[C@H](C)NC(=O)CSC[C@@H](C(=O)NCCOCCOCCOCCOCCOCCOCCOCCOCCOCCOCCOCCOCCC(=O)N[C@H](CSC2CC(=O)N(c3ccc(-c4c5ccc(=O)cc-5oc5cc(O)ccc45)c(C(=O)O)c3)C2=O)C(N)=O)NC(=O)[C@H](Cc2cccc(-c3ccccc3)c2)N(C)C(=O)[C@H](Cc2ccc(O)cc2)NC(=O)[C@H](CCCNC(=N)N)NC(=O)[C@H](CCCCN)NC(=O)[C@H]([C@@H](C)CC)NC1=O (stereo partly drawn) [compound 178] | 1 to 100 nM
CC[C@H](C)[C@@H]1NC(=O)[C@H](Cc2ccc(O)cc2)NC(=O)[C@H](Cc2cccc3ccccc23)NC(=O)[C@H](CC(N)=O)NC(=O)[C@H](Cc2c[nH]c3ccccc23)N(C)C(=O)[C@H](C(C)C)NC(=O)[C@H](Cc2ccccc2)N(C)C(=O)[C@H](C(C)C)NC(=O)[C@H](C)NC(=O)CSC[C@@H](C(=O)NCCOCCOCCOCCOCCOCCOCCOCCOCCOCCOCCOCCOCCC(=O)N[C@H](CSC2CC(=O)N(c3ccc(-c4c5ccc(=O)cc-5oc5cc(O)ccc45)c(C(=O)O)c3)C2=O)C(N)=O)NC(=O)[C@H](Cc2ccc(O)cc2)N(C)C(=O)[C@H](Cc2ccc(O)cc2)NC(=O)[C@H](CCCNC(=N)N)NC(=O)[C@H](CCCCN)NC(=O)[C@H]([C@@H](C)CC)NC1=O (stereo partly drawn) [compound 179] ({CH2CO}-AV[NMeF]V[NMeW]N[1Nal]YIIKRY[NMeY]C[PEG12][dC](X7)-NH2; thioether N-15) | > 1000 nM
CC[C@H](C)[C@@H]1NC(=O)[C@H](Cc2ccc(O)cc2)NC(=O)[C@H](Cc2ccc(O)cc2)NC(=O)[C@H](CC(N)=O)NC(=O)[C@H](Cc2c[nH]c3ccccc23)N(C)C(=O)[C@H](C(C)C)NC(=O)[C@H](Cc2ccccc2)N(C)C(=O)[C@H](C(C)C)NC(=O)[C@H](C)NC(=O)CSC[C@@H](C(=O)NCCOCCOCCOCCOCCOCCOCCOCCOCCOCCOCCOCCOCCC(=O)N[C@H](CSC2CC(=O)N(c3ccc(-c4c5ccc(=O)cc-5oc5cc(O)ccc45)c(C(=O)O)c3)C2=O)C(N)=O)NC(=O)[C@H](Cc2ccc(O)cc2)N(C)C(=O)[C@H](Cc2ccc(O)cc2)NC(=O)[C@H](CCCNC(=N)N)NC(=O)[C@H](CCCCN)NC(=O)[C@@H]2CCCN2C1=O (stereo partly drawn) [compound 180] ({CH2CO}-AV[NMeF]V[NMeW]NYYIPKRY[NMeY]C[PEG12][dC](X7)-NH2; thioether N-15) | > 1000 nM

Same assay, conditions: surface plasmon resonance, peptide vs hTfR; read-out: KD value, hTfR binding by SPR (class symbol)

SMILES | Kd
CC[C@H](C)[C@@H]1NC(=O)[C@H](Cc2ccc(OC)cc2)NC(=O)[C@H](Cc2ccc(N)nc2)NC(=O)[C@H](CC(N)=O)NC(=O)[C@H](Cc2c[nH]c3ccccc23)N(C)C(=O)[C@H](C(C)C)NC(=O)[C@H](Cc2cccc(Cl)c2)N(C)C(=O)[C@H](C(C)C)NC(=O)[C@H](C)NC(=O)CSC[C@@H](C(N)=O)NC(=O)[C@H](Cc2ccc(O)cc2)N(C)C(=O)[C@H](Cc2ccccc2)NC(=O)[C@@H](CCCNC(=N)N)NC(=O)[C@H](CCCNC(=N)N)NC(=O)[C@H]([C@@H](C)CC)NC1=O [compound 315] ({CH2CO}-AV[NMePhe(3-Cl)]V[NMeW]N[3Pal(6-NH2)]Y(Me)IIR[dR]F[NMeY]C-NH2; thioether N-15) | 1 to 100 nM
CC[C@H](C)[C@@H]1NC(=O)[C@H](Cc2ccc(OC)cc2)NC(=O)[C@H](Cc2ccnc(N)c2)NC(=O)[C@H](CC(N)=O)NC(=O)[C@H](Cc2c[nH]c3ccccc23)N(C)C(=O)[C@H](C(C)C)NC(=O)[C@H](Cc2cccc(Cl)c2)N(C)C(=O)[C@H](C(C)C)NC(=O)[C@H](C)NC(=O)CSC[C@@H](C(N)=O)NC(=O)[C@H](Cc2ccc(O)cc2)N(C)C(=O)[C@H](Cc2ccccc2)NC(=O)[C@@H](CCCNC(=N)N)NC(=O)[C@H](CCCNC(=N)N)NC(=O)[C@H]([C@@H](C)CC)NC1=O [compound 316] ({CH2CO}-AV[NMePhe(3-Cl)]V[NMeW]N[Ala(2-NH2-4-pyridyl)]Y(Me)IIR[dR]F[NMeY]C-NH2; thioether N-15) | 1 to 100 nM
